Measured values taken from the supplement of paper PMC12217912.
Some of the results follow. Sequences were assembled here from the parent chain. Values near 0.05 are background.

B1: TEV protease; numbered along this chain (parent)
chain: MGESLFKGPRDYNPISSSICHLTNESDGHTTSLYGIGFGPFIITNKHLFRRNNGTLVVQSLHGVFKVKDTTTLQQHLVDGRDMIIIRMPKDFPPFPQKLKFREPQREERICLVTTNFQTKSMSSMVSDTSCTFPSGDGIFWKHWIQTKDGQCGSPLVSTRDGFIVGIHSASNFTNTNNYFTSVPKNFMELLTNQEAQQWVSGWRLNADSVLWGGHKVFMVKPEEPFQPVKEATQL

Variants of: B1
Assay: raw area under fraction-flipped curve 0-4 h after induction (AUC4h, not background-subtracted), DNA-recorder readout of cleavage of the substrate (dimensionless); higher = more cleavage of the substrate by the protease variant
Settings: temperature: 34 °C; time window: 0-4 h after rhamnose induction
Protocol: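 In vivo DNA recorder in E. coli TOP10(DE3) ΔrhaA at 34 °C. Each TEVp single-site mutant (parent TEVp 0) is paired with a single-site variant of the 7-mer TEVs (canonical ENLYFQ|S). The substrate sits between flexible linkers in a Bxb1-sfGFP-TEVs-SsrA fusion, so cleavage stabilises Bxb1 and speeds flipping of a recombination array, read by NGS. The value is the raw area under the fraction-flipped curve over 0-4 h after rhamnose induction (AUC4h), with ≥20 reads per time point. It is not background-subtracted; inactive controls average about 0.047.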
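Note: Bxb1 expression induced with 0.2% (w/v) L-rhamnose at OD600 near 0.5, cultures sampled hourly, flipped fraction per protease–substrate barcode pair counted by paired-end Illumina sequencing.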

Variant	area with substrate ENLYFCS	area with substrate ENLYFES	area with substrate ENLYFFS	area with substrate ENLYFGS	area with substrate ENLYFHS	area with substrate ENLYFIS	area with substrate ENLYFKS	area with substrate ENLYFLS	area with substrate ENLYFMS	area with substrate ENLYFNS	area with substrate ENLYFPS	area with substrate ENLYFSS	area with substrate ENLYFWS	area with substrate ENLYFYS	area with substrate ENLYFRS	area with substrate ENLYFTS	area with substrate ENLYFVS	area with substrate ENLYFDS
MGESLFKGPRDYNPISSSICHLTNESDGHTTSLYGIGFGPFIITNKHLFRRNNGTLSVQSLHGVFKVKDTTTLQQHLVDGRDMIIIRMPKDFPPFPQKLKFREPQREERICLVTTNFQTKSMSSMVSDTSCTFPSGDGIFWKHWIQTKDGQCGSPLVSTRDGFIVGIHSASNFTNTNNYFTSVPKNFMELLTNQEAQQWVSGWRLNADSVLWGGHKVFMVKPEEPFQPVKEATQL [V57S]	0.055	0.0814	0.0649	0.0596	0.0544	0.0608	0.0496	0.047	0.0777	0.0608	0.0573	0.0752	0.0637	0.0717	–	–	–	–
MGESLFKGPRDYNPISSSICHLTNESDGHTTSLYGIGFGPFIITNKHLFRRNNGTLVRQSLHGVFKVKDTTTLQQHLVDGRDMIIIRMPKDFPPFPQKLKFREPQREERICLVTTNFQTKSMSSMVSDTSCTFPSGDGIFWKHWIQTKDGQCGSPLVSTRDGFIVGIHSASNFTNTNNYFTSVPKNFMELLTNQEAQQWVSGWRLNADSVLWGGHKVFMVKPEEPFQPVKEATQL [V58R]	0.0414	0.0498	0.0488	0.0454	0.0469	0.0448	0.0389	–	0.0382	0.0556	0.0494	0.0418	–	–	0.0592	0.0416	0.0452	–
MGESLFKGPRDYNPISSSICHLTNESDGHTTSLYGIGFGPFIITNKHLFRRNNGTLVVGSLHGVFKVKDTTTLQQHLVDGRDMIIIRMPKDFPPFPQKLKFREPQREERICLVTTNFQTKSMSSMVSDTSCTFPSGDGIFWKHWIQTKDGQCGSPLVSTRDGFIVGIHSASNFTNTNNYFTSVPKNFMELLTNQEAQQWVSGWRLNADSVLWGGHKVFMVKPEEPFQPVKEATQL [Q59G]	0.0519	0.0611	0.0551	–	0.0521	0.0636	0.0619	–	–	–	0.0461	–	–	–	0.0461	0.0522	0.0354	0.0487
MGESLFKGPRDYNPISSSICHLTNESDGHTTSLYGIGFGPFIITNKHLFRRNNGTLVVQSLHGVFKVKDRTTLQQHLVDGRDMIIIRMPKDFPPFPQKLKFREPQREERICLVTTNFQTKSMSSMVSDTSCTFPSGDGIFWKHWIQTKDGQCGSPLVSTRDGFIVGIHSASNFTNTNNYFTSVPKNFMELLTNQEAQQWVSGWRLNADSVLWGGHKVFMVKPEEPFQPVKEATQL [T70R]	0.0517	0.0654	0.065	–	–	0.0483	0.061	–	0.0626	0.0558	0.0541	–	–	–	0.0632	–	0.0456	0.0522
MGESLFKGPRDYNPISSSICHLTNESDGHTTSLYGIGFGPFIITNKHLFRRNNGTLVVQSLHGVFKVKDTTTEQQHLVDGRDMIIIRMPKDFPPFPQKLKFREPQREERICLVTTNFQTKSMSSMVSDTSCTFPSGDGIFWKHWIQTKDGQCGSPLVSTRDGFIVGIHSASNFTNTNNYFTSVPKNFMELLTNQEAQQWVSGWRLNADSVLWGGHKVFMVKPEEPFQPVKEATQL [L73E]	0.0654	0.0539	0.072	0.0428	–	0.0513	0.0556	–	0.0489	–	0.0585	0.0507	0.0521	0.051	0.0637	0.0446	–	0.06
MGESLFKGPRDYNPISSSICHLTNESDGHTTSLYGIGFGPFIITNKHLFRRNNGTLVVQSLHGVFKVKDTTTQQQHLVDGRDMIIIRMPKDFPPFPQKLKFREPQREERICLVTTNFQTKSMSSMVSDTSCTFPSGDGIFWKHWIQTKDGQCGSPLVSTRDGFIVGIHSASNFTNTNNYFTSVPKNFMELLTNQEAQQWVSGWRLNADSVLWGGHKVFMVKPEEPFQPVKEATQL [L73Q]	0.0498	0.0563	0.0587	0.0553	0.0418	0.0502	0.0467	0.0318	0.0554	0.0596	0.0498	0.0599	0.0505	0.0511	0.0394	0.0604	–	–
MGESLFKGPRDYNPISSSICHLTNESDGHTTSLYGIGFGPFIITNKHLFRRNNGTLVVQSLHGVFKVKDTTTRQQHLVDGRDMIIIRMPKDFPPFPQKLKFREPQREERICLVTTNFQTKSMSSMVSDTSCTFPSGDGIFWKHWIQTKDGQCGSPLVSTRDGFIVGIHSASNFTNTNNYFTSVPKNFMELLTNQEAQQWVSGWRLNADSVLWGGHKVFMVKPEEPFQPVKEATQL [L73R]	0.0631	0.0785	0.0566	–	0.0511	0.0603	0.0377	0.0605	–	0.0454	0.0597	0.0501	–	0.0524	–	0.0543	0.0643	0.0471
MGESLFKGPRDYNPISSSICHLTNESDGHTTSLYGIGFGPFIITNKHLFRRNNGTLVVQSLHGVFKVKDTTTLQQWLVDGRDMIIIRMPKDFPPFPQKLKFREPQREERICLVTTNFQTKSMSSMVSDTSCTFPSGDGIFWKHWIQTKDGQCGSPLVSTRDGFIVGIHSASNFTNTNNYFTSVPKNFMELLTNQEAQQWVSGWRLNADSVLWGGHKVFMVKPEEPFQPVKEATQL [H76W]	0.0535	0.0474	0.0218	0.0817	0.0519	0.0552	–	–	0.063	0.068	0.0683	–	0.0577	0.0488	0.0594	0.0618	–	–
MGESLFKGPRDYNPISSSICHLTNESDGHTTSLYGIGFGPFIITNKHLFRRNNGTLVVQSLHGVFKVKDTTTLQQHLVKGRDMIIIRMPKDFPPFPQKLKFREPQREERICLVTTNFQTKSMSSMVSDTSCTFPSGDGIFWKHWIQTKDGQCGSPLVSTRDGFIVGIHSASNFTNTNNYFTSVPKNFMELLTNQEAQQWVSGWRLNADSVLWGGHKVFMVKPEEPFQPVKEATQL [D79K]	0.0593	0.066	0.0623	0.0556	0.0582	0.0545	0.0408	–	0.061	–	0.0657	0.061	0.0446	0.0585	0.0671	0.0587	–	–
